Results: patent publication US20250041435A1, “STEAP2 ANTIBODY DRUG CONJUGATES AND USES THEREOF” (MedImmune, LLC, priority 2023, published 2025)
Numbering of substitutions follows the chain as printed. Where “and” joins values, the source holds several entries; their conditions need not be identical. Equal entries are not always repeated.

B1: LO14 TOP1i ADC (conjugate)
heavy: QVQLQQSGPGLVKPSQTLSLTCAISGDSVSRNSAVWNWIRQSPSRGLEWLGRTYYRSKWYNDYAPSVKSRITINPDTSKNQFSLQLNSVTPEDTAVYYCARGLRQNQFYYYMDVWGKGTTVTVSSASTKGPSVFPLAPSSKSTSGGTAALGCLVKDYFPEPVTVSWNSGALTSGVHTFPAVLQSSGLYSLSSVVTVPSSSLGTQTYICNVNHKPSNTKVDKRVEPKSCDKTHTCPPCPAPEFEGGPSVFLFPPKPKDTLMISRTPEVTCVVVDVSHEDPEVKFNWYVDGVEVHNAKTKPREEQYNSTYRVVSVLTVLHQDWLNGKEYKCKVSNKALPASIEKTISKAKGQPREPQVYTLPPSREEMTKNQVSLTCLVKGFYPSDIAVEWESNGQPENNYKTTPPVLDSDGSFFLYSKLTVDKSRWQQGNVFSCSVMHEALHNHYTQKSLSLSPGK
light: EIVMTQSPATLSVSPGERATLSCRASQSVASNLAWYQQKPGQAPRLLIYGASTRATGIPARFSGSGSGTEFTLTISSLQSEDFAVYYCQQYNNWPFTFGPGTKVDIKRTVAAPSVFIFPPSDEQLKSGTASVVCLLNNFYPREAKVQWKVDNALQSGNSQESVTEQDSKDSTYSLSSTLTLSKADYEKHKVYACEVTHQGLSSPVTKSFNRGEC
B2: LO14 TOP1i DAR8 ADC: 40A3-LO14 conjugated via cleavable mal-PEG8-val-ala linker to a TOP1i warhead (SG3932), DAR 8 (conjugate)
heavy: B1 heavy
light: B1 light
B3: LO14 LP-1 DAR8 ADC (conjugate)
heavy: B1 heavy
light: B1 light
B4: 40A3-LO14 (antibody)
heavy: B1 heavy
light: B1 light
B5: 40A3-LO11 (antibody)
heavy: B1 heavy with R104L
light: B1 light

Legend:
[1] = LO14 TOP1i ADC PK Parameters
Source text: Table printed on a drawing sheet, FIG. 7C
Title: LO14 TOP1i ADC PK Parameters
A standard 2 comportment naïve pool model was used to calculate clearance, half-life, and volume of distribution and over a 21 day duration. There is minimal difference in clearance of LO14 antibody or ADC in immunocompromised NSG mice (left). The clearance of LO14 SG3932 DAR8 ADC is similar in both immunodeficient (NSG, Athymic Nude) and immunocompetent (FcRN) mice (right).
A standard 2 comportment naïve pool model was used to calculate clearance, half-life, and volume of distribution and over a 21 day duration. There is minimal difference in clearance of LO14 DAR4 or DAR8 ADCs in immunocompromised NSG mice (left).
First reader's note: The sheet heading over the plot reads 'PK Profile of LO14 LP-1 DAR8 ADC in NSG Mice SD, IV, 5 mpk', giving the dosing conditions for these parameters.

[2] = Pharmacokinetics in Athymic Nude mice; type: in vivo; settings: single 5 mpk IV
Protocol: (§1) A study was designed to characterize the pharmacokinetics (PK) properties of LO14 unconjugated antibody, DAR4, and DAR8 TOP1i ADCs in mice. Four to six week old male immunodeficient (athymic nude, NOD Scid Gamma) or humanized mice (FcRn) were administered a single dose 5 milligrams per kilogram (mpk) intravenous injection of test reagent. Animals were monitored and 100-200 microliters of blood was collected at each timepoint (n=9 timepoints between 0 to 21 days post injection). The mice for each test group (n=9) were distributed among three cohorts to enable 6 survival bleeds and 3 terminal bleeds over the course of the study. Standard ELISA and Mass Spectrometry methods were used to quantify plasma concentration (ug/mL) of each test article over time. A standard 2 compartment model was fit to the pooled data from all the mice on study. All the individual datapoints are utilized but assuming that there is no inter-animal variability in any of the parameters (naive pooled approach). The 2 compartment model was used to calculate drug clearance (C1), the apparent volume of distribution at steady state (Vss), and half-life (T1/2).

C42 cells [3] = experiment: Cytotoxicity assay (CellTiter-Glo 2.0) in C42; type: cell-based, human
Protocol: (§2) The cytotoxicity assays were designed to determine whether LO11 and LO14 TOP1i ADCs could reduce the cell viability of STEAP2 expressing prostate cancer cell lines. The assay relies on the principle that dying cells will produce less adenosine triphosphate (ATP). […] The bioluminescent signal was detected using standard plate-reading methods (SpectraMax M5). Briefly, 24 hours prior to starting the assay, human prostate cancer cells were harvested and counted described above. […] Fifty microliters of each dilution was added to the designated wells and cells were incubated for 5. After removing the treatment media, 50 microliters of RPMI1640 media without Phenol Red and 50 microliters of CTG2.0 (Promega) was added to each well. Plates were incubated for 20 minutes and then transferred to the SpectraMax M5 for luminescence detection.

LUCAP147 PDX model = experiment: In vivo efficacy, LUCAP147 patient-derived xenograft; parameters: species or system NSG mice
Protocol: (§3) Cell lines or tumor tissue fragments were implanted subcutaneously into male NSG mice between 6 to 8 weeks of age. When tumors reached the appropriate tumor volume range (150-300 mm^3), animals were randomized into treatment and control groups (n=5 animals/group) and dosing was initiated. A single dose of test article was administered to the tumor-bearing mice via intravenous injection. Animals were observed daily, and tumor dimensions and body weight were measured and recorded twice weekly. Tumor volumes were measured by digital caliper and the volumes of tumors were calculated using the following formula: tumor volume=[length (mm)×width (mm)^2×0.52, where the length and width are the longest and shortest diameters of the tumor, respectively.
(§4) Monotonic (always decreasing) generalized additive model (GAM) spline curves were fit to the dose response data to illustrate the statistical difference between the effects of LO14 TOP1i DAR4 and DAR8 ADCs across the tested CDX and PDX models (FIG. 8E).
(§5) • DAR4.Ix50/DAR8.Ix50 refers to the best fit value of the lambda, wherein best is based on the r-squared value. • Diff is the difference in relative growth rate between DAR4 and DAR8. • SE=standard error

C42 model = experiment: In vivo efficacy, C42 cell-derived xenograft; parameters: species or system NSG mice; settings: for dose as low as which significant tumor regression was observed: C42 model, single IV dose
Protocol: as §3, §4, §5

[4] = system: 19 different human prostate PDX models; experiment: Therapeutic activity in 19 prostate patient derived xenografts; type: in vivo, NSG mice; settings: models with median response from baseline of −30% or lower
Protocol: Tumor tissue fragments were implanted subcutaneously into male NSG mice between 6 to 8 weeks of age. When tumors reached the appropriate tumor volume range, tumors were resected and expanded into a cohort of study animals. When the tumors in the study animals reached the appropriate tumor volume (150-300 mm^3), animals were randomized into treatment and control groups (n=3 animals/group) and dosing was initiated. A single dose of test article was administered and animal body weights and tumor volumes were recorded as described above. The results shown in FIGS. 9A-9B are sorted in descending order of median response from baseline.
The PDX models evaluated in FIGS. 9A-9B represent tumor material from 19 distinctly different patients. […] When administered at 5 mpk, LO14 TOP1i DAR8 ADC has an ORR of 57.9% (11/19) in comparison to the 5% (1/19) ORR with Isotype ADC administered at an equivalent dose (FIG. 9A). When administered at 2.5 mpk, LO14 TOP1i DAR8 ADC has an ORR of 47.4% (9/19) in comparison to the 5% (1/19) ORR with Isotype ADC administered at an equivalent dose (FIG. 9B).

018-73LuCaP = experiment: In vivo efficacy, 73LuCaP patient-derived xenograft; parameters: species or system NSG mice
Protocol: as §3, §4, §5

LNCaP cells = experiment: Cytotoxicity assay (CellTiter-Glo 2.0) in LNCaP; type: cell-based, human
Protocol: as §2

[5] = Pharmacokinetics in FcRn humanized mice; type: in vivo; settings: single 5 mpk IV
Protocol: as §1

22Rv1 cells = experiment: Cytotoxicity assay (CellTiter-Glo 2.0) in 22Rv1; type: cell-based, human
Protocol: as §2

[6] = Pharmacokinetics in NSG mice; type: in vivo; settings: single 5 mpk IV; for Cl (clearance): 2 compartment model
Protocol: as §1

22Rv1 model = experiment: In vivo efficacy, 22Rv1 cell-derived xenograft; parameters: species or system NSG mice; settings: for dose at which significant tumor regression was achieved: 22Rv1 model, single IV dose
Protocol: as §3, §4, §5

LUCAP70 PDX model = experiment: In vivo efficacy, LUCAP70 patient-derived xenograft; parameters: species or system NSG mice
Protocol: as §3, §4, §5

[7] = Photo stress developability; type: physicochemical; settings: hIgG1-TM
C42 cells [8] = experiment: Internalization assay (Fab-Fluor, Incucyte live cell imaging); type: cell-based, human; settings: calculated between 2.5-6 hours
Source text: The internalization assays were designed to determine the rate at which parental 40A3-LO7 and its affinity matured derivatives could enter the cell after target engagement. The assay relies on labeling the Fc-containing test antibodies with a Fab fragment-conjugated pH-sensitive fluorophore (Sartorius/Essen BioScience) and the inherent ability of STEAP2 receptor to internalize when bound to antibody. The internalization of the anti-STEAP2 antibodies was detected with standard methods of live cell imaging using the Incucyte SX5.
Briefly, 24 hrs prior to starting the assay, the cells lines being evaluated were harvested using cold 0.25% Trypsin-EDTA, resuspended in maintenance media, pelleted, and counted. Cell density was adjusted to 0.15 e6 cells/ml in RPMI1640 media without phenol red. One hundred microliters of cells were added to each well and incubated overnight at 37 C, 5% CO2. […] The data was normalized analyzed by dividing the “Total Integrated Intensity (TII=RCU×μm^2/Image)” by the “% Confluence,” then multiplying by an appropriate scaling factor. The normalized data plotted as a function of time, and the slope was calculated to determine the internalization rate (A intensity/min). The earliest timepoint at which fluorescent signal was detected above background was at 2 hours (FIG. 4A-4B, top), so the internalization kinetics were calculated between 2.5-6 hours.

[9] = Heat stress developability; type: physicochemical; settings: hIgG1-TM

Molecule	cytotoxic effect on cell viability, in words (C42) (C42 cells [3])	dose as low as which significant tumor regression was observed (C42 model)	cytotoxic effect on cell viability, in words (LNCaP) (LNCaP cells)	cytotoxic effect on cell viability, in words (22Rv1) (22Rv1 cells)	T1/2 [6] [days]	Vss [6] [L/kg]	Cl (clearance) [6] [mL/day/kg]	dose at which significant tumor regression was achieved (22Rv1 model)	Photo stress (% aggregate increase) [7] [%]	internalization rate (C42 cells [8]) [TII/min]	Heat Stress (% aggregate increase) [9] [%]	also measured
B1	–	–	–	–	–	–	–	–	–	–	–	CLp [1]: 7.7 mL/day/kg; t1/2 [1]: 9.7 days
B2	dose-dependent decrease in cell viability	1 mpk	dose-dependent decrease in cell viability	dose-dependent decrease in cell viability	12.6	0.104	6	3 mpk	–	–	–	T1/2 [2]: 12.2 days; Vss [2]: 0.126 L/kg; Cl (clearance) ([2]; 2 compartment model): 7.6 mL/day/kg; Diff (difference in relative growth rate between DAR4 and DAR8) (LUCAP147 PDX model; 017-147LuCaP): −0.05; Ix50 (best fit value of the lambda, GAM dose response of relative tumor growth rate) (LUCAP147 PDX model; 017-147LuCaP): 0.27; dose as low as which significant tumor regressions were observed (LUCAP147 PDX model; LUCAP147 PDX, single IV dose): 1 mpk; Diff (difference in relative growth rate between DAR4 and DAR8) (C42 model; 015-C42, Day Range 0-40): −0.56; Ix50 (best fit value of the lambda, GAM dose response of relative tumor growth rate) (C42 model; 015-C42, Day Range 0-40): 0.93; Overall response rate (ORR) ([4]; 2.5 mpk single IV dose): 47.4%; Overall response rate (ORR) ([4]; 5 mpk single IV dose): 57.9%; Diff (difference in relative growth rate between DAR4 and DAR8) (018-73LuCaP): −0.05; Ix50 (best fit value of the lambda, GAM dose response of relative tumor growth rate) (018-73LuCaP): 0.12; T1/2 [5]: 8.8 days; Vss [5]: 0.126 L/kg; Cl (clearance) ([5]; 2 compartment model): 10.7 mL/day/kg; Diff (difference in relative growth rate between DAR4 and DAR8) (22Rv1 model; 014-22Rv1, Day Range 0-21): −4.49; Ix50 (best fit value of the lambda, GAM dose response of relative tumor growth rate) (22Rv1 model; 014-22Rv1, Day Range 0-21): 5.34; Diff (difference in relative growth rate between DAR4 and DAR8) (LUCAP70 PDX model; 019-70LuCaP): −0.05; Ix50 (best fit value of the lambda, GAM dose response of relative tumor growth rate) (LUCAP70 PDX model; 019-70LuCaP): 0.15; dose as low as which significant tumor regressions were observed (LUCAP70 PDX model; LUCAP70 PDX, single IV dose): 1 mpk
B3	dose-dependent decrease in cell viability	0.25 mpk and 0.5 mpk	dose-dependent decrease in cell viability	dose-dependent decrease in cell viability	–	–	–	3-6 mpk	–	–	–	–
B4	–	–	–	–	15	0.11	5.2	–	1.75	85	0.27	–
B5	–	–	–	–	–	–	–	–	0.8	66	0.24	–
